This is an account of results in patent US20210054071A1 (NANJING LEGEND BIOTECH, published 2021).

Experiment [1] addresses T1, cynomolgus TIGIT expressed on CHO-K1 cells (cynomolgus, UniProt A0A7N9I9V4 89-312).
T1 construct: whole, on cells
In words: FACS, CHO-K1 cells expressing cynomolgus TIGIT. On the technique in general: A flow cytometer gives signals particle by particle.

Experiment [2] has as its target T2, cynomolgus TIGIT-His protein (Acrobiosystems) (cynomolgus, UniProt A0A7N9I9V4 89-209).
T2 construct: bought
In words: SPR (BIAcore T200), target amine-coupled to CM5 chip. (In SPR one partner is held on a chip, and binding of the other changes the refractive index at the surface.)

In experiment [3] the target is T3, mouse TIGIT-His protein (Acrobiosystems) (mouse, UniProt P86176 29-148, limits assumed).
T3 construct: bought
T3 sequence (looked up): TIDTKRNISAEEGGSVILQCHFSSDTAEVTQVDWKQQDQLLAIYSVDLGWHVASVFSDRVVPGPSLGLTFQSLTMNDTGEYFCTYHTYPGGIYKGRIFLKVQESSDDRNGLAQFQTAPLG
The experiment is described as above.

Experiment [4] has as its target T2, cynomolgus TIGIT-His protein …. Described as above. The source holds these as a separate data set.
In experiment [5] the target is T3, mouse TIGIT-His protein (Acrobiosystems). The description is as above. The source holds these as a separate data set.
Experiment [6] shares this target. As to the kind of experiment: SPR as in Example 2.
For experiment [7], the target named is T4, murine TIGIT expressed on CHO-K1 cells (murine, UniProt P86176 29-249).
T4 construct: whole, on cells; also called CHO/mouse TIGIT; mouse TIGIT expressed on CHO cells
T4 sequence (looked up): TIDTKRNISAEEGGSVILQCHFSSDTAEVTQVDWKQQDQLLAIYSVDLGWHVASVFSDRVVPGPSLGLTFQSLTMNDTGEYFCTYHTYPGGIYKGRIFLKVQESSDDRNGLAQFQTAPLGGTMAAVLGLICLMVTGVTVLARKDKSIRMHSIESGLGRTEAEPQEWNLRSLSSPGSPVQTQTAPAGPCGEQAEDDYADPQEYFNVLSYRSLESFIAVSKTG
As to the kind of experiment: FACS, CHO-K1 cells expressing murine TIGIT.

For experiment [8], the target named is T1, cynomolgus TIGIT expressed on CHO-K1 …. In words: FACS, CHO-K1 cells expressing cynomolgus TIGIT. This is another data set of the same source.

Where two headings read alike, the source gives them in different places.

The EC50 is the concentration at which the effect is half-maximal. Higher therefore signals a less potent agent. In general, Kd refers to the equilibrium constant for the complex coming apart. Lower therefore signals tighter binding. One may read the koff as a measure of how fast the partners let go of each other. A higher koff goes with a short-lived complex. A word on the kon: it is the rate constant with which the complex forms.

B1: AS19584 sdAb-Fc (IgG1) fusion protein (Fc fusion)
chain: QVQLAESGGGSVQAGGSLRLSCAASGYKYGVYSMGWFRLAPGKEREGVAAICSGGRTTYSDSVKGRFTISKDSANQILYLQMNSLKPEDTAMYYCAARPLWTGDCDLSSSWYKTWGQGTQVTVSS[human IgG1 Fc not written out]
notes: unhumanized camel anti-TIGIT sdAb fused to human IgG1 Fc, dimeric form; also called AS19584-Fc; AS19584-Fc (IgG1)
In the case of B1, the EC50 in experiment [1] amounted to 3.85 nM; in experiment [7] it was 0.806 nM; in experiment [8] it was 0.664 nM. For the same molecule, the Kd in experiment [2] amounted to 51 nM; in experiment [3], 0.5 nM; in experiment [4], 38 nM; in experiment [5], 0.55 nM; in experiment [6] it was 0.57 nM. The koff in experiment [2] was 0.014 s⁻¹; in experiment [3], 0.00072 s⁻¹; in experiment [4] it was 0.017 s⁻¹. For the same molecule, the kon was found to be 270000 M⁻¹ s⁻¹ in experiment [2], 1.4e+06 M⁻¹ s⁻¹ in experiment [3], 460000 M⁻¹ s⁻¹ in experiment [4] and 880000 M⁻¹ s⁻¹ in experiment [5].
